The text below walks through data of ChEMBL document CHEMBL4888484, “Replenishing the malaria drug discovery pipeline: Screening and hit evaluation of the MMV Hit Generation Library 1 (HGL1) against asexual blood stage Plasmodium falciparum ,using a nano luciferase reporter read-out” (2022).

Screen size: about 150,000 compounds; about 540 (0.36%) showed an effect of 50% or more. The list shows a part of the results.

By % Inhibition is commonly meant the change of the read-out against control, counted positive when it falls.

The assay concerns Plasmodium falciparum. Kind of assay: Primary screen in NF54 nanoGlo assay, in single point, at 2uM, 72h; a lower Z score goes with more inhibition. Format: functional, Erythrocyte. Conditions: timepoint 72 hour.
Turning to `Cc1[nH]c2ccccc2c1CCNS(=O)(=O)CCn1cnnn1`, the “% Inhibition” value is reported as -15% and the Z score was determined as 2.68.
On to `CC(=O)N[C@H](CC1CCC1)C(=O)Nc1cccnc1C`, for which the “% Inhibition” value is listed as -3% and the Z score was 0.57.
With `COc1ccccc1Cn1c(=O)[nH]c2cc(-c3nc(-c4ccc(F)cc4)no3)ccc2c1=O`, the “% Inhibition” value was -9% and the Z score was 0.99.
Regarding `COc1ccc(C(=O)N2C(C(=O)NCC3CCCO3)COC23CCN(C(=O)c2ccc(F)cc2)CC3)cc1` (stereo unspecified), the “% Inhibition” value was found to be 1% and the Z score is reported as -0.16.
For `Cc1csc([C@](O)(CC(=O)Nc2ccc3c(c2)OC(C)(C)O3)C(F)(F)F)n1` the same measures were -2% and 0.32.
Take `CCc1csc(CNC(=O)c2ccc(N3CCN(C)[C@@H](CC)C3)nc2)n1`: the “% Inhibition” value was 1% and the Z score is listed as -0.14.
For `CCc1nn(-c2ccc(OC)cc2)c(Oc2cccc(F)c2)c1CCC(=O)N(C)C(C)C` the same measures were -17% and 1.74.
For `CC1CN(S(=O)(=O)C2CCCN(C(=O)OCc3ccccc3)C2)CC[S+]([O-])C1` (stereo unspecified) the same measures were -2% and 0.22.
For `COc1ccccc1-c1nc2cc(Cl)ccc2cc1CN(Cc1ccc2c(c1)OCO2)C(C)=O` the same measures were 0% and 0.08.
In the case of `CC(=O)Nc1c(C(C)(C)C)cc(C(C)(C)C)c(N)c1C`, the “% Inhibition” value is listed as -8% and the Z score turned out to be 0.95.
On to `Cc1ccc(NC(=O)Cn2cnc3c(c2=O)CN(Cc2ccccc2)CC3)cc1F`, for which the “% Inhibition” value is given as -12% and the Z score is on record as 1.58.
Turning to `COCC(C)(C)NC(=O)CCn1cnnn1`, the “% Inhibition” value is 4% and the Z score is -0.75.
Consider `N#Cc1cc2n(n1)CCCN(CC1=CCCCC1)C2`, for which the “% Inhibition” value is -6% and the Z score amounted to 1.15.
As to `O=C(Nc1cccc2cccnc12)N1CCCO[C@@H](CN2CCCCC2)C1`, the “% Inhibition” value is given as -6% and the Z score worked out at 0.65.
`COC(=O)[C@@H]1CC[C@@H](c2ccccc2)N1C(=O)c1cc(OC)ccn1`: the “% Inhibition” value is listed as -2% and the Z score is 0.26.
Regarding `COc1ccc([C@@H]2CCCN2C(=O)CCC(=O)c2ccccc2)cc1OC`, the “% Inhibition” value is -6% and the Z score amounted to 0.6.
Regarding `CCCC1(CCC)NC(=O)N(CC(=O)Nc2ccn(C)n2)C1=O`, the “% Inhibition” value was determined as 3% and the Z score is -0.35.
For `CC[C@H](OC1CCCC1)C(=O)Nc1ccn(C(C)(C)C)n1` the same measures were -9% and 1.13.
`Cc1nonc1CC(=O)Nc1ccc(C(F)F)nc1`: the “% Inhibition” value came to 0% and the Z score was determined as 0.01.
For `COC(=O)c1cc(C2CC2)nc2c1c(=O)n(Cc1ccc(C)cc1)c(=O)n2C` the same measures were -11% and 1.52.
As to `CCOCC(=O)NCC1CCC(c2nc3ccccc3[nH]2)CC1` (stereo unspecified), the “% Inhibition” value is -14% and the Z score was determined as 1.63.
For `CC1(C2CCCN(Cc3ccc4c(c3)CCC4)C2)NC(=O)NC1=O` (stereo unspecified) the same measures were -8% and 1.26.
For `Cc1cc(S(=O)(=O)N[C@H]2CCN(C)C2)c(C)s1` the same measures were -22% and 2.79.
For `Cc1noc(C)c1S(=O)(=O)N1C[C@@H]2C[C@H](NC(=O)c3ccccc3)[C@H]1C2` the same measures were -15% and 2.5.
With `O=C(O)c1cc(C(=O)N2CCCC[C@@H]2CCCc2ccccc2)ccn1`, the “% Inhibition” value is listed as 7% and the Z score is recorded as -0.81.
Consider `Cc1ccnc2c1NC(=O)CN2C(=O)COc1cccc(Cl)c1C`, for which the “% Inhibition” value is recorded as -16% and the Z score worked out at 2.01.
In the case of `Cc1n[nH]c(C(=O)N2CCn3nc([C@@H](O)c4ccnn4C)cc3C2)c1Cl`, the “% Inhibition” value is listed as -7% and the Z score came out at 1.28.
Consider `CCOc1ccc(S(=O)(=O)N2CC=C(c3c(C)n(Cc4ccc(Cl)cc4)c4ccccc34)CC2)cc1`, for which the “% Inhibition” value is reported as -11% and the Z score worked out at 1.48.
For `O=C1CN(S(=O)(=O)c2ccccc2C(F)(F)F)CCN1c1ncc(F)cn1` the same measures were 18% and -2.31.
Regarding `CCCCn1nnnc1Cn1cncn1`, the “% Inhibition” value is reported as -6% and the Z score is recorded as 0.68.
Take `CC(C)[C@@H]1CCO[C@@H]1c1nc(-c2ccc3[nH]c(=O)[nH]c3c2)no1`: the “% Inhibition” value was -9% and the Z score is 1.34.
`O=C1NCCC[C@@H]1Oc1cccc(C(F)(F)F)n1`: the “% Inhibition” value is -1% and the Z score worked out at 0.08.
For `O=C(NCCc1ccco1)[C@H]1CCCN(c2nc3ncccc3n3cccc23)C1` the same measures were -21% and 2.39.
For `CC(=O)N[C@H]1C[C@H]2CN(Cc3ccccc3OC(C)C)CC(=O)N2C1` the same measures were -20% and 1.79.
For `O=C(Nc1ccc2c(c1)OCCO2)N1CCC[C@@H]1Cc1noc(-c2cnccn2)n1` the same measures were -14% and 1.88.
For the molecule `Cc1cc(N2CCC[C@@H]2CN2CCOCC2)nc(C(C)C)n1`, the “% Inhibition” value is reported as -7% and the Z score worked out at 0.94.
As for `CCC(C)N(CC(=O)O)C(=O)C(C)c1cccs1` (stereo unspecified), the “% Inhibition” value is -5% and the Z score turned out to be 0.57.
Regarding `O=S(=O)(N1CCOCC1)N(C[C@H]1CCOC1)C1CC1`, the “% Inhibition” value is -14% and the Z score is reported as 1.2.
For `CCc1ccc(-c2cc(C(=O)N3C[C@H]4CCCN[C@H]4C3)[nH]n2)cc1` the same measures were -15% and 2.56.
For `COCCNC(=O)N[C@@H](C)Cc1cccs1` the same measures were -6% and 0.91.
Consider `O=C(CCCn1cccn1)N[C@H]1CCC[C@H]1Cc1ccc(F)cc1`, for which the “% Inhibition” value is -6% and the Z score came to 1.04.
For `CN(C(=O)Cn1cccc(S(=O)(=O)N2CCCCCC2)c1=O)C1CCCCC1` the same measures were -4% and 0.69.
In the case of `CCCc1cc(C(=O)N2CCN(c3ccc(N(C)C)cc3)CC2)[nH]n1`, the “% Inhibition” value turned out to be 0% and the Z score was found to be 0.06.
For `COc1ccc(-c2cc(C(=O)N3CCN(C(c4ccccc4)c4ccccc4)CC3)c3cc(Br)ccc3n2)cc1` the same measures were -6% and 0.81.
For `Cc1ccc(C(C(=O)Nc2ccc(C(C)C)cc2)N(Cc2ccco2)C(=O)CC2NC(=O)NC2=O)cc1` (stereo unspecified) the same measures were 25% and -3.82.
For `OC1Cc2ccccc2C1NCc1cccc2[nH]ccc12` (stereo unspecified) the same measures were -1% and 0.17.
Consider `O=C1CC[C@H](C(=O)Nc2cccc(-c3ccc4c(c3)CCO4)c2)N1`, for which the “% Inhibition” value is listed as -1% and the Z score worked out at 0.11.
For `CC[C@@]1(C)COCCN1Cc1nnn(C)n1` the same measures were -8% and 1.18.
For `Cc1cccnc1CCNC(=O)c1nccn1C` the same measures were -5% and 1.06.
For `COC(=O)C[C@H](NC(=O)c1cc(F)cc(F)c1)C1CC1` the same measures were 30% and -3.35.
Regarding `C=CCCS(=O)(=O)N1CCNC[C@@H]1C`, the “% Inhibition” value was -9% and the Z score is 1.16.
For `COc1cccc(CN[C@@]2(CO)CCOC2)c1F` the same measures were -15% and 1.26.
Turning to `Cc1ccc(C(=O)NCCN2C(=O)CCC2=O)s1`, the “% Inhibition” value is on record as -12% and the Z score amounted to 0.99.
